# The supplement of paper PMC8728848
# Some of the results follow.
# B1: MVL (Microcystis viridis), Q9RHG4 (protein)
# chain: MASYKVNIPAGPLWSNAEAQQVGPKIAAAHQGNFTGQWTTVVESAMSVVEVELQVENTGIHEFKTDVLAGPLWSNDEAQKLGPQIAASYGAEFTGQWRTIVEGVMSVIQIKYTF
# Legend:
# Test in all cases: glycan array binding signal (z-score within array); higher = stronger binding
# Conditions in all cases: glycan notation: IUPAC condensed, linker removed
# [1] = target: Fuc(a1-2)Gal
# Summary of the method: (§1)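 Glycan array data were curated from 3228 arrays in the Consortium for Functional Glycomics database and kept only where the protein sequence was available. Glycan names were converted to IUPAC-condensed notation, and columns mapping to the same glycan were averaged. The binding signal is a within-array Z-score, averaged across arrays of the same protein sequence at different concentrations or buffers and across linkers. Negative Z-scores can be read as non-binding.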
# [2] = target: Fuc(a1-2)Gal(b1-3)GalNAc
# Summary of the method: as §1
# [3] = target: Fuc(a1-2)Gal(b1-3)GalNAc(b1-3)Gal
# Summary of the method: as §1
# [4] = target: Fuc(a1-2)Gal(b1-3)GalNAc(b1-3)Gal(a1-4)Gal(b1-4)Glc
# Summary of the method: as §1
# [5] = target: Fuc(a1-2)Gal(b1-3)GalNAc(b1-4)[Neu5Ac(a2-3)]Gal(b1-4)Glc
# Summary of the method: as §1
# [6] = target: Fuc(a1-2)Gal(b1-3)GlcNAc
# Summary of the method: as §1
# [7] = target: Fuc(a1-2)Gal(b1-3)GlcNAc(b1-2)Man(a1-3)[Fuc(a1-2)Gal(b1-3)GlcNAc(b1-2)Man(a1-6)]Man(b1-4)GlcNAc(b1-4)GlcNAc
# Summary of the method: as §1
# [8] = target: Fuc(a1-2)Gal(b1-3)GlcNAc(b1-3)Gal(b1-4)Glc
# Summary of the method: as §1
# [9] = target: Fuc(a1-2)Gal(b1-3)GlcNAc(b1-3)[Gal(b1-4)[Fuc(a1-3)]GlcNAc(b1-6)]Gal(b1-4)Glc
# Summary of the method: as §1
# [10] = target: Fuc(a1-2)Gal(b1-3)[Fuc(a1-4)]GlcNAc
# Summary of the method: as §1
# [11] = target: Fuc(a1-2)Gal(b1-3)[Fuc(a1-4)]GlcNAc(b1-2)Man(a1-3)[Fuc(a1-2)Gal(b1-3)[Fuc(a1-4)]GlcNAc(b1-2)Man(a1-6)]Man(b1-4)GlcNAc(b1-4)GlcNAc
# Summary of the method: as §1
# [12] = target: Fuc(a1-2)Gal(b1-4)Glc
# Summary of the method: as §1
# [13] = target: Fuc(a1-2)Gal(b1-4)Glc6S
# Summary of the method: as §1
# [14] = target: Fuc(a1-2)Gal(b1-4)GlcNAc
# Summary of the method: as §1
# [15] = target: Fuc(a1-2)Gal(b1-4)GlcNAc(b1-2)Man(a1-3)[Fuc(a1-2)Gal(b1-4)GlcNAc(b1-2)Man(a1-6)]Man(b1-4)GlcNAc(b1-4)GlcNAc
# Summary of the method: as §1
# [16] = target: Fuc(a1-2)Gal(b1-4)GlcNAc(b1-3)Gal(b1-4)GlcNAc
# Summary of the method: as §1
# [17] = target: Fuc(a1-2)Gal(b1-4)GlcNAc(b1-3)Gal(b1-4)GlcNAc(b1-3)Gal(b1-4)GlcNAc
# Summary of the method: as §1
# [18] = target: Fuc(a1-2)Gal(b1-4)GlcNAc6S
# Summary of the method: as §1
# [19] = target: Fuc(a1-2)Gal(b1-4)[Fuc(a1-3)]GlcNAc
# Summary of the method: as §1
# [20] = target: Fuc(a1-2)Gal(b1-4)[Fuc(a1-3)]GlcNAc(b1-2)Man(a1-3)[Fuc(a1-2)Gal(b1-4)[Fuc(a1-3)]GlcNAc(b1-2)Man(a1-6)]Man(b1-4)GlcNAc(b1-4)GlcNAc
# Summary of the method: as §1
# [21] = target: Fuc(a1-2)Gal(b1-4)[Fuc(a1-3)]GlcNAc(b1-3)Gal(b1-4)[Fuc(a1-3)]GlcNAc
# Summary of the method: as §1
# [22] = target: Fuc(a1-2)Gal(b1-4)[Fuc(a1-3)]GlcNAc(b1-3)Gal(b1-4)[Fuc(a1-3)]GlcNAc(b1-3)Gal(b1-4)[Fuc(a1-3)]GlcNAc
# Summary of the method: as §1
# [23] = target: Fuc(a1-2)Gal6S(b1-4)Glc
# Summary of the method: as §1
# [24] = target: Fuc(a1-2)Gal6S(b1-4)Glc6S
# Summary of the method: as §1
# [25] = target: Fuc(a1-2)Gal6S(b1-4)GlcNAc
# Summary of the method: as §1
# [26] = target: Fuc(a1-2)GlcNAc
# Summary of the method: as §1
# [27] = target: Fuc(a1-2)[Gal(a1-3)]Gal
# Summary of the method: as §1
# [28] = target: Fuc(a1-2)[Gal(a1-3)]Gal(b1-3)GlcNAc
# Summary of the method: as §1
# [29] = target: Fuc(a1-2)[Gal(a1-3)]Gal(b1-3)GlcNAc(b1-2)Man(a1-3)[Fuc(a1-2)[Gal(a1-3)]Gal(b1-3)GlcNAc(b1-2)Man(a1-6)]Man(b1-4)GlcNAc(b1-4)GlcNAc
# Summary of the method: as §1
# [30] = target: Fuc(a1-2)[Gal(a1-3)]Gal(b1-4)Glc
# Summary of the method: as §1
# [31] = target: Fuc(a1-2)[Gal(a1-3)]Gal(b1-4)GlcNAc
# Summary of the method: as §1
# [32] = target: Fuc(a1-2)[Gal(a1-3)]Gal(b1-4)GlcNAc(b1-2)Man(a1-3)[Fuc(a1-2)[Gal(a1-3)]Gal(b1-4)GlcNAc(b1-2)Man(a1-6)]Man(b1-4)GlcNAc(b1-4)GlcNAc
# Summary of the method: as §1
# [33] = target: Fuc(a1-2)[Gal(a1-3)]Gal(b1-4)[Fuc(a1-3)]GlcNAc
# Summary of the method: as §1
# [34] = target: Fuc(a1-2)[Gal(a1-4)]Gal(b1-4)GlcNAc
# Summary of the method: as §1
# [35] = target: Fuc(a1-2)[GalNAc(a1-3)]Gal
# Summary of the method: as §1
# [36] = target: Fuc(a1-2)[GalNAc(a1-3)]Gal(b1-3)GlcNAc
# Summary of the method: as §1
# [37] = target: Fuc(a1-2)[GalNAc(a1-3)]Gal(b1-3)GlcNAc(b1-2)Man(a1-3)[Fuc(a1-2)[GalNAc(a1-3)]Gal(b1-3)GlcNAc(b1-2)Man(a1-6)]Man(b1-4)GlcNAc(b1-4)GlcNAc
# Summary of the method: as §1
# [38] = target: Fuc(a1-2)[GalNAc(a1-3)]Gal(b1-4)Glc
# Summary of the method: as §1
# [39] = target: Fuc(a1-2)[GalNAc(a1-3)]Gal(b1-4)GlcNAc
# Summary of the method: as §1
# [40] = target: Fuc(a1-2)[GalNAc(a1-3)]Gal(b1-4)GlcNAc(b1-2)Man(a1-3)[GalNAc(a1-3)[Fuc(a1-2)]Gal(b1-4)GlcNAc(b1-2)Man(a1-6)]Man(b1-4)GlcNAc(b1-4)GlcNAc
# Summary of the method: as §1
# [41] = target: Fuc(a1-2)[GalNAc(a1-3)]Gal(b1-4)GlcNAc(b1-3)Gal(b1-4)GlcNAc
# Summary of the method: as §1
# [42] = target: Fuc(a1-2)[GalNAc(a1-3)]Gal(b1-4)GlcNAc(b1-3)Gal(b1-4)GlcNAc(b1-3)Gal(b1-4)GlcNAc
# Summary of the method: as §1
# [43] = target: Fuc(a1-2)[GalNAc(a1-3)]Gal(b1-4)[Fuc(a1-3)]GlcNAc
# Summary of the method: as §1
# [44] = target: Fuc(a1-2)[GalNAc(a1-4)]Gal(b1-4)GlcNAc
# Summary of the method: as §1
# [45] = target: Fuc(a1-2)[GalNAc(b1-3)]Gal
# Summary of the method: as §1
binder,measurement,setting,value
B1,glycan array binding signal (z-score),[1],-0.235
same,glycan array binding signal (z-score),[2],-0.102
same,glycan array binding signal (z-score),[3],-0.113
same,glycan array binding signal (z-score),[4],-0.236
same,glycan array binding signal (z-score),[5],-0.23
same,glycan array binding signal (z-score),[6],-0.222
same,glycan array binding signal (z-score),[7],0.909
same,glycan array binding signal (z-score),[8],-0.237
same,glycan array binding signal (z-score),[9],-0.217
same,glycan array binding signal (z-score),[10],-0.242
same,glycan array binding signal (z-score),[11],0.019
same,glycan array binding signal (z-score),[12],-0.242
same,glycan array binding signal (z-score),[13],-0.234
same,glycan array binding signal (z-score),[14],-0.233
same,glycan array binding signal (z-score),[15],0.923
same,glycan array binding signal (z-score),[16],-0.223
same,glycan array binding signal (z-score),[17],-0.199
same,glycan array binding signal (z-score),[18],-0.25
same,glycan array binding signal (z-score),[19],-0.236
same,glycan array binding signal (z-score),[20],-0.093
same,glycan array binding signal (z-score),[21],-0.238
same,glycan array binding signal (z-score),[22],-0.157
same,glycan array binding signal (z-score),[23],-0.227
same,glycan array binding signal (z-score),[24],-0.183
same,glycan array binding signal (z-score),[25],-0.24
same,glycan array binding signal (z-score),[26],-0.244
same,glycan array binding signal (z-score),[27],-0.238
same,glycan array binding signal (z-score),[28],-0.209
same,glycan array binding signal (z-score),[29],0.752
same,glycan array binding signal (z-score),[30],-0.229
same,glycan array binding signal (z-score),[31],-0.243
same,glycan array binding signal (z-score),[32],1.59
same,glycan array binding signal (z-score),[33],-0.195
same,glycan array binding signal (z-score),[34],-0.246
same,glycan array binding signal (z-score),[35],-0.22
same,glycan array binding signal (z-score),[36],-0.204
same,glycan array binding signal (z-score),[37],0.451
same,glycan array binding signal (z-score),[38],-0.201
same,glycan array binding signal (z-score),[39],-0.246
same,glycan array binding signal (z-score),[40],1.72
same,glycan array binding signal (z-score),[41],-0.242
same,glycan array binding signal (z-score),[42],-0.202
same,glycan array binding signal (z-score),[43],-0.201
same,glycan array binding signal (z-score),[44],-0.231
same,glycan array binding signal (z-score),[45],-0.241
